Test results: paper PMC6919601, “Identification of Plasmodium dipeptidyl aminopeptidase allosteric inhibitors by high throughput screening” (PLoS ONE, 2019)
Screen size: about 110,000 compounds; about 230 (0.21%) showed an effect of 50% or more. The list shows a part of the results.

molecular target: DPAP1 (Plasmodium falciparum, UniProt Q8IIJ9); experiment: primary screen, percent inhibition; read by cleavage of a fluorogenic dipeptide substrate; higher = more effect of the substance; set-up: species or system P. falciparum D10 trophozoite lysates; single well
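Further: 30 min substrate incubation versus DMSO and 10 µM JCP410 controls.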

Chain of DPAP1 (Q8IIJ9 whole entry, looked up): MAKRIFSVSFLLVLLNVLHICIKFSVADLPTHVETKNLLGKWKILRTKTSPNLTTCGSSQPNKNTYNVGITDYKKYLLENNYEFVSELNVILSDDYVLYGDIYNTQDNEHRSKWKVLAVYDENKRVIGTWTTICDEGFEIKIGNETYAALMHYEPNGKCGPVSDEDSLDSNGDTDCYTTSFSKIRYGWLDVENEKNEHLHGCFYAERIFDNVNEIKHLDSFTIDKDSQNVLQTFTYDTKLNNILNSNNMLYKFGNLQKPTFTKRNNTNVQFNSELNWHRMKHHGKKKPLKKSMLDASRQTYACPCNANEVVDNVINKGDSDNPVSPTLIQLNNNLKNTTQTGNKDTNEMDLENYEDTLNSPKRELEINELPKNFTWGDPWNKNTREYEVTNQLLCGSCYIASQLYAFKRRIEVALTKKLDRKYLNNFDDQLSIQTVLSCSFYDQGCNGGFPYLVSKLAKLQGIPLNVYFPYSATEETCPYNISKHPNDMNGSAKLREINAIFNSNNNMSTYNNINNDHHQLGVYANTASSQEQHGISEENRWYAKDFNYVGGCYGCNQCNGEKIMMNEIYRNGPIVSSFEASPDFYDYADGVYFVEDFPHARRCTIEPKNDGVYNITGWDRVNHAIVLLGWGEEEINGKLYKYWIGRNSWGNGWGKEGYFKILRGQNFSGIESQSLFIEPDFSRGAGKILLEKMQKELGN

| Compound | % Inhibition @ 10 uM [%] |
| --- | --- |
| Cc1ccc(S(=O)(=O)NC2CCCCC2)cc1[N+](=O)[O-] | -4.35 |
| Cc1nn(C)c(C)c1CN(C)C(=O)c1cc2n(n1)C(C(F)(F)F)CC(c1ccc3c(c1)OCO3)N2 (stereo not shown) | -6.44 |
| CCc1ccc(NC(=O)CCC(=O)Nc2ccc(CC)cc2)cc1 | 4.11 |
| CC(N)C12CC3CC(CC(O)(C3)C1)C2 (stereo not shown) | 2.58 |
| CC(C)N(CCc1ccncc1)C(=S)NCC1CCCO1 (stereo not shown) | -4.53 |
| O=C(CS(=O)(=O)c1ccc2ccccc2c1)N1CCCC1 | 3.19 |
| CC(C)(C)Nc1nc(Cl)nc(NCc2ccccc2)n1 | -5.23 |
| COc1ccccc1CNC(=O)c1cccc2c1C(=O)N(C1CCCCC1)C2 | -6.62 |
| O=C(Nc1ccc(S(=O)(=O)NC2CCCCC2)cc1)NC1CCCCC1 | 0.323 |
| O=C(CCc1ccc(-n2cnc3cccnc32)cc1)NC1CCCCCC1 | -3.47 |
| CCOc1cc(/C=C2/C(=N)N3OC(C)=CC3=NC2=O)cc(Cl)c1OCCOc1ccccc1 | -1.43 |
| O=C(C1c2ccccc2Oc2ccccc21)N1CCN(c2ncccn2)CC1 | -1.06 |
| Cc1cc(NC(=O)CN2CCN(CCO)CC2)nc2c1c(=O)oc1ccccc12 | 2.81 |
| CC(C)CNC(=O)c1ccc2c(c1)C(=O)N(Cc1ccco1)C2=O | -5.6 |
| CC1CCc2sc(NC(=O)C3CC(Cl)=CCC3C(=O)O)c(C#N)c2C1 (stereo not shown) | -4.76 |
| COc1cccc(N(CC(=O)Nc2ccc(C(C)C)cc2)S(C)(=O)=O)c1 | 1.52 |
| Cc1cc(/C=C2/SC(=O)N(C(C)C)C2=O)c(C)n1-c1ccccn1 | 0.145 |
| OCCN(CCO)CC(O)COc1cccc(Cl)c1 (stereo not shown) | 2.95 |
| CCCn1c(=O)c2c(nc3n2CCN3Cc2ccccc2)n(C)c1=O | 0.867 |
| CC1=CCC2C(=O)N(C3CCCCC3)C(=O)C2C1 (stereo not shown) | -2.2 |
| Cc1ccc(CNC(=O)CNC(=S)N(Cc2ccccc2)Cc2cccs2)cc1 | 5.99 |
| CCC1CCc2c(sc(N)c2C(=O)NC2CCCCC2)C1 (stereo not shown) | -0.116 |
| Cc1nc(-n2cccc2)sc1C(=O)NCCCc1ccccc1 | -2.37 |

| Compound | % Inhibition @ 10 uM [%] |
| --- | --- |
| CCOC(=O)N1CCN(Cc2ccc(Cl)cc2Cl)CC1 | 3.24 |
| CC(=O)C1=C(C)Nc2ncnn2C1c1ccc(Cl)cc1 (stereo not shown) | 2.68 |
| OC1(c2ccc(F)cc2)CSC2=NCCN21 (stereo not shown) | 5.01 |
| CC(C)OCCCNC(=O)c1noc2c1COc1ccccc1-2 | 58.6 |
| CCn1cc(Cl)c(C(=O)NCc2cc3ccccc3[nH]2)n1 | 3.79 |
| COC(=O)c1nc2ccccc2[nH]1 | 4.61 |
| Cn1c2ccccc2[n+]2nc3c(cc12)c1cccnc1c1ncccc31 | 5.42 |
| CC(=O)c1c(C)nc(-c2ccccc2)nc1N | -3.77 |
| COc1ccc(C2SCC(=O)N2CCN2CCCCC2)cc1OC (stereo not shown) | 9.62 |
| COc1cccc(C2=NS(=O)(=O)N(C)C(C(=O)NC(C)c3ccccc3)=C2)c1 (stereo not shown) | 3.92 |
| COC(=O)[C@@H]1CCCN1C(=O)[C@H](CC(C)C)NC(=O)/C=C/S(=O)(=O)c1ccccc1 | 10.2 |
| CCOc1ccc(C2c3c(-c4ccccc4O)n[nH]c3C(=O)N2Cc2ccco2)cc1OC (stereo not shown) | 0.366 |
| Cc1cccc(NC(=O)C(C)Oc2ccccc2F)c1 (stereo not shown) | 3.57 |
| Fc1ccc(N2CCN(C3CCC(c4ccccc4)CC3)CC2)cc1 (stereo not shown) | 6.52 |
| O=C(Cc1ccccc1)Nc1ccc(-c2nc3ccccc3[nH]2)cc1 | 0.83 |
| COC(=O)C1=CN(C2CC2)C=C(C(=O)OC)C1c1cccc(OC)c1 | 3.43 |
| Cc1ccc2c(c1)c1c(n2C)/C(=N/O)CCC1 | -0.216 |
| Cc1cccc(NC(=O)c2ccc(C(=O)Nc3cccc(C)c3)nc2)c1 | -0.67 |
| Cc1ccc(C)c(NC(=O)CN(c2ccc(C(C)C)cc2)S(C)(=O)=O)c1 | 3.72 |
| NS(=O)(=O)c1ccc(NC(=O)c2ccccc2F)cc1 | 4.57 |
| CN1C(=O)C(=Cc2ccco2)C(=O)N(C)C1=O | 1.7 |
| O=C(O)c1ccc(S(=O)(=O)NCc2cccnc2)cc1 | 15.8 |
| COc1ccc(-c2csc3ncn(Cc4c(F)cccc4Cl)c(=O)c23)cc1 | -4.5 |

| Compound | % Inhibition @ 10 uM [%] |
| --- | --- |
| COc1ccc(-c2cnn3c(C)cc(C)nc23)cc1OC | -1.72 |
| COc1ccc(C2=C/C(=C/c3ccco3)C(=O)O2)cc1 | -5.62 |
| O=C(O)CCC(=O)Nc1nc(-c2ccccc2)cs1 | -5.7 |
| CCOc1ccccc1CN1C(=O)c2ccccc2C1C(=O)NC(C)CC (stereo not shown) | -0.668 |
| CCCc1cc(-c2[nH]nc(C)c2-c2ccc3c(c2)OCCO3)c(O)cc1O | 0.628 |
| O=C(CN1C(=O)c2ccc(Br)cc2C1=O)Nc1ccc(C(=O)O)cc1 | 17.8 |
| CCCc1c(C)nc2nc3ccccc3n2c1O | -0.85 |
| Cc1ccc(Cl)cc1N(CC(=O)Nc1ccccc1C(=O)O)S(C)(=O)=O | -1.98 |
| COc1ccc(Cn2c(SCc3ccc(C(=O)NC(C)C)cc3)nc3ccncc32)cc1 | -2.14 |
| Cc1ccccc1/C=C/c1nn2c(-c3ccoc3C)nnc2s1 | -3.31 |
| Oc1ccc(NCc2ccc(OCc3cccs3)cc2)cc1 | -2.8 |
| COc1cc(OC)cc(C(=O)O/N=C(\N)c2ccccn2)c1 | 3.8 |
| CC1CCCc2c1nc(N)c(C#N)c2-c1ccc2c(c1)OCO2 (stereo not shown) | -6.74 |
| c1cncc(-c2nc3c4ccccc4nc(NCCCN4CCOCC4)n3n2)c1 | 7.15 |
| CN(C)CCC1(c2ccc(O)c(O)c2)CCCCC1 | -4.23 |
| COc1ccccc1C1C2=C(CCCC2=O)OC2=C1C(=O)CCC2 | -6.75 |
| c1ccc(CN2CCN(Cc3cccs3)CC2)cc1 | 3.16 |
| CC(C)Cn1c(CN2CCN(Cc3ccccc3)CC2)nc2c1c(=O)n(C)c(=O)n2C | -1.65 |
| Cc1nc2c(-c3ccc(Cl)cc3)c(Cc3ccccc3)nn2c(O)c1Cl | 2.92 |
| CC(CN1CCCCC1CO)c1ccccc1 (stereo not shown) | 0.217 |
| COc1ccccc1CNCc1ccccn1 | 10.5 |
